From patent US20230416360A1 (SIMCERE ZAIMING PHARMACEUTICAL, published 2023) come the findings set out here.

Sequences and labels used below:
T1: human CD22-ECD-His (human, UniProt P20273 20-687)
T1 construct: Made in HEK293E, purified on nickel column; also called hCD22-ECD-His; recombinant human CD22-ECD His; not shown: His tag
T1 sequence: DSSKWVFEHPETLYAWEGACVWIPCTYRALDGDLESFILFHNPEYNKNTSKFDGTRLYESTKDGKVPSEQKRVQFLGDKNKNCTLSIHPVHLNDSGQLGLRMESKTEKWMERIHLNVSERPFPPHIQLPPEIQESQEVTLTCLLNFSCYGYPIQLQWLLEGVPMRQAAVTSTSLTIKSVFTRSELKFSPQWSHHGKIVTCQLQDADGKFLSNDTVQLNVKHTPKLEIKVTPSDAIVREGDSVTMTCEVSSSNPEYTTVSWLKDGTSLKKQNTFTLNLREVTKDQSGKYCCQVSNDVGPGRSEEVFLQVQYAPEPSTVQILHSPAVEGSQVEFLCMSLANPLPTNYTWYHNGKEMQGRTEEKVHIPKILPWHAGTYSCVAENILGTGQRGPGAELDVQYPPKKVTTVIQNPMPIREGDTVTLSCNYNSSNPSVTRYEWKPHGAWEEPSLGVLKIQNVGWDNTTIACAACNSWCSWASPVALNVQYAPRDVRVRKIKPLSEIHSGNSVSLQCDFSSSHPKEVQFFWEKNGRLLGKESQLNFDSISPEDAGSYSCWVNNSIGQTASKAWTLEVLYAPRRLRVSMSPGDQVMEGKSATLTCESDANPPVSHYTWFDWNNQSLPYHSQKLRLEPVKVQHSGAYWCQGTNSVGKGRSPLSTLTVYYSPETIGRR

T2: murine CD22-ECD-His (mouse, UniProt P35329 22-708)
T2 construct: extracellular domain; Bought; also called mouse CD22; murine CD22 protein
T2 sequence (looked up): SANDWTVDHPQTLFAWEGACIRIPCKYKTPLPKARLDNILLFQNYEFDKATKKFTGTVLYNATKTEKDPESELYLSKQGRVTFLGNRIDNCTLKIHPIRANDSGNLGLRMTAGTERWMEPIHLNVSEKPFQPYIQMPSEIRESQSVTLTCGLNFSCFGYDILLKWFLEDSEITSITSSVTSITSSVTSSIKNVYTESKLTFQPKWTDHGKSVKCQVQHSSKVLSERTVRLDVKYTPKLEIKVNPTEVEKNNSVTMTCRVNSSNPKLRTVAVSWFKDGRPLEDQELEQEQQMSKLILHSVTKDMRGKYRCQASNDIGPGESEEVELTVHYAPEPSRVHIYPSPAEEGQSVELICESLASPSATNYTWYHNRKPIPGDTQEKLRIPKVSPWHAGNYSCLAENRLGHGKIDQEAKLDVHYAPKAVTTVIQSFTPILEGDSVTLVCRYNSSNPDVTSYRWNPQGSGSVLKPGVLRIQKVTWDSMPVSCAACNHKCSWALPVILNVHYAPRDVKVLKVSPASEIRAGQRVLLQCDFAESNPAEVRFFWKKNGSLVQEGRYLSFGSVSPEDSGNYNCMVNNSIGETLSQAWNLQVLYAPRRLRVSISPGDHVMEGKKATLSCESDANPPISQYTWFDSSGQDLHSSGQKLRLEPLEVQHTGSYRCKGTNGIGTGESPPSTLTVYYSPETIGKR

B1: S002-NB151-2 VHH-Fc (Fc fusion)
chain: QVQLVESGGGLVQAGDSLRLSCAASGRTFSPSTMAWFRQAPGKERELVARIGWTYGDTYYVDSAKGRFTISMDNVKNTVYLQMNSLKPEDTAVYYCAALFRGGLSYNFSNRGTQVTVSS[human IgG1 Fc with changes cut from this listing]
notes: VHH cloned into vector BI3.4-huIgG1 (hinge and human IgG1 Fc), made in HEK293E; also called 5002-NB151-2
B2: S002-NB150-159n VHH-Fc (Fc fusion)
chain: QVQLVESGGGLVQAGDSLRLACEASGRTATISTMGWFRQAPGKEREFVGRIDWSAESTYIVDSVKGRFIISRDNAKNAGYLQMNSLKPVDTAVYYCAAIVVRERSYKYWGQGTQVTVSS[human IgG1 Fc with changes cut from this listing]
notes: VHH cloned into vector BI3.4-huIgG1 (hinge and human IgG1 Fc), made in HEK293E; also called S002-NB150-15911
B3: S002-NB151-92 VHH-Fc (Fc fusion)
chain: QVQLVESGGGLVQSGGSLRLSCAASGFTFSDYTMNWVRQAPGKGLEWVSEISSGGHFKSNADSVKDRFTISRDNAKNTLYLQMNSLKPEDTAVYFCAKCPRPSVYCRDYESTSLYRGQGTQVTVSS[human IgG1 Fc with changes cut from this listing]
notes: VHH cloned into vector BI3.4-huIgG1 (hinge and human IgG1 Fc), made in HEK293E; also called 5002-NB151-92
B4: S002-NB150-2 VHH-Fc (Fc fusion)
chain: QVQLVESGGGLVQPGGSLRLSCAASGSWFNIAMGWFRQAPGKEREFVAGIRWSDSKTYYADSVKGRFTISGDNAKNTTYLQMNSLKPEDTAVYYCAAQRYYRGSYNRQTNYDHWGQGTQVTVSS[human IgG1 Fc with changes cut from this listing]
notes: VHH cloned into vector BI3.4-huIgG1 (hinge and human IgG1 Fc), made in HEK293E; also called 5002-NB150-2
B5: S002-NB151-82 VHH-Fc (Fc fusion)
chain: EVQVVESGGGLVQAGDSLRLSCTTSGRTFYGDYIAWFRQAPGKEREFVAAIAVRGRGTFYGDSVKGRFTISRDNAENTLSLQMNSLKPEDTAVYYCAADAGSYASRGFPVRETGRYDYWGQGTQVTVSS[human IgG1 Fc with changes cut from this listing]
notes: VHH cloned into vector BI3.4-huIgG1 (hinge and human IgG1 Fc), made in HEK293E; also called 5002-NB151-82
B6: S002-NB151-30 VHH-Fc (Fc fusion)
chain: QVQLVESGGGLVQAGGSLRLSCAASGRASGSGAMGWFRQAPGQERRFVAGIEWSSGGPVYADSVKGRFTLSRDNAKNTVHLQMNSLKPEDTAVYYCAAAPWVFSSPDDYMYWGQGTQVTVSS[human IgG1 Fc with changes cut from this listing]
notes: VHH cloned into vector BI3.4-huIgG1 (hinge and human IgG1 Fc), made in HEK293E; also called 5002-NB151-30
B7: HA22 scFv-hFc (Fc fusion)
chain: EVQLVESGGGLVKPGGSLKLSCAASGFAFSIYDMSWVRQTPEKCLEWVAYISSGGGTTYYPDTVKGRFTISRDNAKNTLYLQMSSLKSEDTAMYYCARHSGYGTHWGVLFAYWGQGTLVTVSAGGGGSGGGGSGGGGSDIQMTQTTSSLSASLGDRVTISCRASQDISNYLNWYQQKPDGTVKLLIYYTSILHSGVPSRFSGSGSGTDYSLTISNLEQEDFATYFCQQGNTLPWTFGCGTKLEIK[human IgG1 Fc with changes cut from this listing]
B8: S002-NB151-13 VHH-Fc (Fc fusion)
chain: QVQLVESGGGLVQAGDSLRLSCAASTRIFRSYVMGWFRQAPGKEREAVASIRWSNDTGTYADSVKGRFTISRDNAKNTVYLQMNSLKPEDTAVYSCAADSPPWGRTWYTGYDYWGQGTQVTVSS[human IgG1 Fc with changes cut from this listing]
notes: VHH cloned into vector BI3.4-huIgG1 (hinge and human IgG1 Fc), made in HEK293E
B9: S002-NB151-51 VHH-Fc (Fc fusion)
chain: QVQLVESGGGLVQAGGSLRLSCAASGITSDDYAIGWFRQAPGKEREGVSCMYSSDGSTYYADSVKGRFTISRDNAKNTVYLQMNSLRPEDTAVYHCAAGPWCFVTGVGREEWGQGTQVTVSS[human IgG1 Fc with changes cut from this listing]
notes: VHH cloned into vector BI3.4-huIgG1 (hinge and human IgG1 Fc), made in HEK293E; also called 5002-NB151-51
B10: S002-NB151-66 VHH-Fc (Fc fusion)
chain: QVQLVESGGGLVQAGGSLRLACAASGDTVSIYYMGWFRQAPGKEREFVGALSASGQFTDHADSVKGRFTISRDDAQNTVFLHMNDLKPEDTAVYYCAVQRYGWVYRTDKTMYNYWGQGTQVTVSS[human IgG1 Fc with changes cut from this listing]
notes: as for B8
B11: S002-NB151-23 VHH-Fc (Fc fusion)
chain: QVQLVESGGGLVQAGGSLTVSCTNSGRTLSTSTIAWFRQKPGKDSEFVAAIRWSGGMGWYADSVKGRFTISRDNAENTVSLQMNTLQPEDTAVYFCAVSTVPYYGSIYTRVGDYPYWGQGTQVTVSS[human IgG1 Fc with changes cut from this listing]
notes: VHH cloned into vector BI3.4-huIgG1 (hinge and human IgG1 Fc), made in HEK293E; also called 5002-NB151-23

The target of one assay is T1, human CD22-ECD-His. Nature of the assay: ELISA, antibody coated 2 ug/mL, hCD22-ECD-His titrated.
As to B1, the EC80 turned out to be 20.8 nM.

Consider B2, for which the EC80 is 5.73 nM.

B3 showed a concentration for an effect of 80% (EC80) of 15.6 nM.

On to B4, for which the EC80 is 1.73 nM.

Take B5: it took 4 nM to reach the 80% level (EC80).

In turn, B6 yielded an EC80 of 8.13 nM.

B7: the EC80 amounted to 0.8 nM.

With B8, the EC80 was 80.1 nM.

Regarding B9, the EC80 was 1.6 nM.

Molecule B10 had an EC80 of 2.8 nM.

In turn, B11 had an EC80 of 3.2 nM.

Another assay deals with T2, murine CD22-ECD-His. Nature of the assay: ELISA, coated mouse CD22, antibody 0.01 nM. The procedure: (§1) The plate was sealed with plastic film and incubated overnight at 4° C., the plate was washed 2 times with PBS the next day, and then a blocking solution [PBS+2% (w/w) BSA] was added for blocking at room temperature for 2 hours. […] After incubation at 37° C. for 2 hours, the plate was washed 3 times with PBS. HRP (horseradish peroxidase)-labeled secondary antibody (purchased from Sigma, catalog number: A0170) was added, and incubated at 37° C. for 2 hours, and the plate was washed 5 times with PBS. TMB substrate was added at 50 μl/well, and incubated at room temperature for 30 minutes, then a stop solution (1.0 N HCl) was added at 50 μl/well.
On to B1, for which the OD450 was 0.06.

Regarding B2, the OD450 was determined as 0.05.

With B3, the OD450 is 0.05.

Take B4: the OD450 came out at 0.05.

For B5, the OD450 was determined as 0.07.

B6 gave an OD450 of 0.06.

B9: the OD450 stood at 0.69.

Molecule B10 returned an OD450 of 0.06.

Molecule B11 gave an OD450 of 0.06.

A further assay has as its target T2, murine CD22-ECD-His. Briefly: ELISA, coated mouse CD22, antibody 0.10 nM. The procedure:
as §1
B1 returned an OD450 of 0.05.

B2 showed an OD450 of 0.05.

B3 returned an OD450 of 0.07.

The molecule B4 registered an OD450 of 0.05.

B5 displayed an OD450 of 0.06.

B6 had an OD450 of 0.06.

As for B9, the OD450 came to 2.33.

For the molecule B10, the OD450 is 0.06.

As for B11, the OD450 came to 0.06.

A further assay deals with T2, murine CD22-ECD-His. Briefly: ELISA, coated mouse CD22, antibody 10 nM. The procedure: as §1
The molecule B1 came in with an OD450 of 0.06.

B2 returned an OD450 of 0.05.

Turning to B3, the OD450 was found to be 0.05.

The molecule B4 had an OD450 of 0.06.

B5 returned an OD450 of 0.08.

In turn, B6 came in with an OD450 of 0.07.

B9 showed an OD450 of 2.77.

As to B10, the OD450 was 0.08.

B11 came in with an OD450 of 0.07.

Another assay concerns the target T1, human CD22-ECD-His. Nature of the assay: ELISA, coated hCD22-ECD-His, antibody 0.0001 nM. The procedure: as §1
The molecule B1 yielded an OD450 of 0.3.

B2: the OD450 is 0.09.

The molecule B3 gave an OD450 of 0.08.

In turn, B4 gave an OD450 of 0.26.

In the case of B5, the OD450 was 0.13.

As for B6, the OD450 was found to be 0.11.

The molecule B7 gave an OD450 of 0.07.

B8 yielded an OD450 of 0.25.

B9 showed an OD450 of 0.1.

On to B10, for which the OD450 came to 0.15.

On to B11, for which the OD450 amounted to 0.25.

The next assay addresses T1, human CD22-ECD-His. Nature of the assay: ELISA, coated hCD22-ECD-His, antibody 0.10 nM. The procedure: as §1
The molecule B1 came in with an OD450 of 1.82.

For B2, the OD450 amounted to 2.22.

B3 registered an OD450 of 1.86.

B4 had an OD450 of 1.83.

B5 showed an OD450 of 1.3.

The molecule B6 returned an OD450 of 1.35.

B7 displayed an OD450 of 1.5.

The molecule B8 came in with an OD450 of 1.65.

For B9, the OD450 came to 1.54.

Molecule B10 yielded an OD450 of 1.29.

B11 showed an OD450 of 1.24.

Another assay has as its target T1, human CD22-ECD-His. Nature of the assay: ELISA, coated hCD22-ECD-His, antibody 100 nM. The procedure:
as §1
B1 registered an OD450 of 1.93.

The molecule B2 returned an OD450 of 3.2.

In turn, B3 returned an OD450 of 1.61.

As for B4, the OD450 turned out to be 2.29.

In turn, B5 returned an OD450 of 1.54.

In turn, B6 gave an OD450 of 1.8.

In turn, B7 had an OD450 of 2.01.

The molecule B8 showed an OD450 of 2.12.

Consider B9, for which the OD450 was 1.68.

The molecule B10 gave an OD450 of 1.38.

In turn, B11 displayed an OD450 of 1.33.
